# Measurements taken from the supplement of paper PMC4604168 (melanoma cell lines).
# The list shows a part of the results. Single values are uncertain, as repeats are few or missing.
# System: SkMel2
# Test: cell count relative to DMSO control; melanoma cells; higher = more viable cells
# Conditions: library dose: low library concentration; 72 h
# 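Also: cell number obtained by counting DAPI-stained nuclei in high-throughput microscope images with image analysis software, screen run in 1,536-well plates.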
row,SMILES,cell count [%]
1,"Nc1nc(F)nc2c1ncn2[C@@H]1O[C@H](CO)[C@@H](O)[C@@H]1O [fludarabine] + CN(C)S(=O)(=O)c1ccc2c(c1)/C(=C/c1cc3c([nH]1)CCCC3)C(=O)N2 [SU6656] (first compound 0.2 µM, partner dose 0.4 µM)",6.43
2,"Nc1nc(F)nc2c1ncn2[C@@H]1O[C@H](CO)[C@@H](O)[C@@H]1O [fludarabine] + Cc1ccc(NC(=O)c2cccc(N(C)C)c2)cc1NC(=O)c1ccc(O)cc1 [ZM336372] (first compound 0.2 µM, partner dose 2 µM)",6.34
3,"Nc1ncn([C@H]2C[C@H](O)[C@@H](CO)O2)c(=O)n1 [decitabine] + c1cc(-c2cnn3cc(-c4ccc(OCCN5CCCCC5)cc4)cnc23)ccn1 [Dorsomorphin] (first compound 0.1 µM, partner dose 0.4 µM)",114
4,"Nc1nc(F)nc2c1ncn2[C@@H]1O[C@H](CO)[C@@H](O)[C@@H]1O [fludarabine] + COc1cc2ncnc(Nc3ccc(Oc4ccccc4)cc3)c2cc1OC [SrcI1] (first compound 0.2 µM, partner dose 2 µM)",12.3
5,"Nc1ccn([C@@H]2O[C@H](CO)[C@@H](O)C2(F)F)c(=O)n1 [gemcitabine] + O=C(Nc1cccc(Cl)c1)Nc1ncc(CCNc2ncnc3ccsc23)s1 [SNS314] (first compound 0.0004 µM, partner dose 0.0008 µM)",93.5
6,"Nc1nc(F)nc2c1ncn2[C@@H]1O[C@H](CO)[C@@H](O)[C@@H]1O [fludarabine] + C#Cc1cccc(Nc2ncnc3cc(OCCOC)c(OCCOC)cc23)c1 [erlotinib] (first compound 0.2 µM, partner dose 0.8 µM)",5.95
7,"Nc1nc(F)nc2c1ncn2[C@@H]1O[C@H](CO)[C@@H](O)[C@@H]1O [fludarabine] + COc1cc(N2CCC(N3CCN(C)CC3)CC2)ccc1Nc1ncc(Cl)c(Nc2ccccc2S(=O)(=O)C(C)C)n1 [NVP-TAE684] (first compound 0.2 µM, partner dose 0.08 µM)",6.22
8,"CC(=O)c1c(C)c2cnc(Nc3ccc(N4CCNCC4)cn3)nc2n(C2CCCC2)c1=O [palbociclib] + C=CCn1c(=O)c2cnc(Nc3ccc(N4CCN(C)CC4)cc3)nc2n1-c1cccc(C(C)(C)O)n1 [MK1775] (first compound 0.04 µM, partner dose 0.02 µM)",69.4
